Measured values from PubChem BioAssay AID1476 (National Center for Advancing Translational Sciences (NCATS), 2009).
Hit rate of the full screen: of about 200,000 compounds, about 4,500 (2.2%) were called active. The shares of active, inactive and inconclusive entries below differ from those in the screen. Calls follow the shape of the dose curve; as a rule, active = well fitted inhibition curve with a large enough effect; inconclusive = small, poorly fitted or top-dose-only effect, or effect the other way; inactive = flat fitted curve, though single readings scatter. Potencies beside an inconclusive call are fits to weak or partial responses and may not hold up.

What follows are compounds tested against Cruzipain (Trypanosoma cruzi) (UniProt P25779) (assay: qHTS Assay for Promiscuous and Specific Inhibitors of Cruzain (without detergent)). Settings: purified cruzain, Z-FR-AMC fluorescence, no detergent.
Chain of UniProt P25779 (P25779 whole entry, looked up): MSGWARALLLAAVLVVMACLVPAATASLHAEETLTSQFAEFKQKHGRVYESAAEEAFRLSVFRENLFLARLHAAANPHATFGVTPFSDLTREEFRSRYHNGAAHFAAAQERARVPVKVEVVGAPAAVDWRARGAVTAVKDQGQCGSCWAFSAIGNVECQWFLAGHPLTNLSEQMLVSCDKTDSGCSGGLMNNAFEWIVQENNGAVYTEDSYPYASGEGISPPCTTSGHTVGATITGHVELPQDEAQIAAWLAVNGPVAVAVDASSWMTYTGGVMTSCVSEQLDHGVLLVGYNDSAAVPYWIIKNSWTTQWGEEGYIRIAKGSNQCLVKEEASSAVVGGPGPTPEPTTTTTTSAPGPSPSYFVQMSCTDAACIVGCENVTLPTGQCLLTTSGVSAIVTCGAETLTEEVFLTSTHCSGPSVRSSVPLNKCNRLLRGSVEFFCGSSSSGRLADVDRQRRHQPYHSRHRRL
In short: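 Purified cruzain at 1.5 nM, pre-incubated 15 min with compound at room temperature in 100 mM sodium acetate pH 5.5, 5 mM DTT, 0.00005% Triton X-100. Reaction started with 2 uM Z-FR-AMC; AMC fluorescence increase over 60 s gives rate.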
Also: nearly all actives have a fitted effect of over 40% in size.
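For max response, negative = inhibition in this document: plate controls were enzyme without inhibitor for no effect and buffer without enzyme for full effect.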
Potency is read from the fitted curve at half-maximal effect; tags tell the direction and shape of the fitted curve.

Compound | max response, negative = inhibition | Potency
Cc1ccc(S(=O)(=O)c2nnn3c2nc(NC2CCCCC2)c2sccc23)cc1C | inactive: -4.38% | –
CN(Cc1ccccc1)c1nc2c(S(=O)(=O)c3ccccc3)nnn2c2ccsc12 | inactive: 18.3% | –
COCC(=O)N1CCC2(CC1)CN(C(=O)Nc1ccccc1)C2 | inactive: 0.852% | –
CCC(C(=O)O)C1CCC(C)C(C(C)C(O)C(C)C(=O)C(CC)C2OC3(C=CC(O)[C@@]4(CC[C@](C)(C5CC[C@@](O)(CC)C(C)O5)O4)O3)C(C)CC2C)O1 (stereo partly drawn) | – | inconclusive: 3.98 µM [activator, full curve]
COc1ccc(-c2noc(CC(=O)N(C)c3cc(Cl)c(OC)cc3OC)n2)cc1 | – | inconclusive: 25.1 µM [activator, single point]
COC(=O)c1cccc(NC(=O)c2nn(C)c(=O)c3ccccc23)c1 | – | inconclusive: 39.8 µM [activator, single point]
CCn1c(=O)c2sccc2n2c(CCCC(=O)Nc3ccc(Oc4ccccc4)cc3)nnc12 | – | inconclusive: 20 µM [activator, partial curve]
O=C(c1cccc(N2C(=O)C3CC=CCC3C2=O)c1)N1CCN(c2ccccc2)CC1 (stereo not drawn) | – | active: 15.8 µM
Cn1c(=O)c(=O)n(C)c2cc(N3CCCC3)c(NC(=O)c3ccccc3Cl)cc21 | inactive: -11.6% | –
CCC1CCCN1Cn1cnc2c([nH]c3ccc(C)cc32)c1=O (stereo not drawn) | inactive: -1.83% | –
Cc1cc(-n2c(C)cc(C(=O)CSc3nnnn3-c3ccc(Cl)cc3)c2C)no1 | – | inconclusive: 3.98 µM [inhibitor, partial curve]
COc1ccc(OC)c(CCNc2nc3cc(OC)c(OC)cc3c3nc(-c4cccnc4)nn23)c1 | inactive: 6.59% | –
Clc1cccc(Cl)c1CSc1cc2c(nn1)-c1ccccc1CC2 | – | inconclusive: 39.8 µM [inhibitor, single point]
COc1ccc(CN(CCC(c2ccccc2)c2ccco2)C(=O)c2ccco2)cc1 (stereo not drawn) | – | inconclusive: 25.1 µM [inhibitor, partial curve]
CCS(=O)(=O)N1CCc2cc(C(=O)Nc3cc(C)cc(C)c3)ccc21 | inactive: 4.74% | –
COC(=O)/C(=C\c1ccc2c(c1)c1ccccc1n2C)NC(=O)c1ccccc1 | – | inconclusive: 25.1 µM [inhibitor, partial curve]
O=C(NCc1cn(-c2ccccc2)nc1-c1ccccc1)c1cccc([N+](=O)[O-])c1 | – | inconclusive: 39.8 µM [inhibitor, single point]
Nc1nonc1-c1nc2ccccc2n1CC(=O)Nc1cccc(C(F)(F)F)c1 | – | inconclusive: 10 µM [inhibitor, partial curve]
Cc1ccc(NC(=O)C(=O)NCc2ccc(/C=N/NC(=O)c3c(C)nc4cc(C)ccn34)o2)cc1 | – | inconclusive: 15.8 µM [activator, partial curve]
COc1ccc(C)cc1NC(=O)CSc1ncc2c(n1)-c1ccc(Cl)cc1N(Cc1ccccc1)S2(=O)=O | – | active: 3.16 µM
O=C(C(NS(=O)(=O)c1cccc2nsnc12)c1ccccc1)N1CCN(c2ccccc2)CC1 (stereo not drawn) | – | inconclusive: 20 µM [inhibitor, partial curve]

Compound | max response, negative = inhibition | Potency
CCOc1ccccc1NC(=O)CSc1cn(CC(=O)N2CCCCCC2)c2ccccc12 | inactive: -5.48% | –
O=[N+]([O-])c1cccc(C2=NC(c3ccccc3)CO2)c1 (stereo not drawn) | – | inconclusive: 25.1 µM [inhibitor, single point]
COc1ccc(-c2noc(COc3ccc(C)c(C)c3)n2)cc1OC | – | inconclusive: 39.8 µM [activator, single point]
Cc1ccc2cc(CCNC(=O)c3ccco3)c(=O)[nH]c2c1C | – | inconclusive: 20 µM [inhibitor, partial curve]
CCN(CC)S(=O)(=O)c1ccc2c(c1)N(CC(=O)Nc1cccc(C)c1C)C(=O)C1CCCN21 (stereo not drawn) | – | inconclusive: 39.8 µM [activator, single point]
COc1ccc(CCNC(=O)c2cc(-c3ccc(C)c(C)c3O)n[nH]2)cc1OC | – | inconclusive: 31.6 µM [activator, single point]
CC(Sc1nc2cc(Cl)ccc2s1)C(=O)Nc1ccc2c(c1)OCO2 (stereo not drawn) | – | inconclusive: 31.6 µM [inhibitor, single point]
Cc1noc(C)c1S(=O)(=O)N(CC(=O)Nc1ccc(C(F)(F)F)cc1)c1ccc(C(C)C)cc1 | – | inconclusive: 39.8 µM [inhibitor, single point]
COc1cc2nc(=S)n3[nH]c(COc4ccccc4C)nc3c2cc1OC | – | inconclusive: 39.8 µM [activator, single point]
Clc1ccccc1CNCCCSc1nnnn1-c1ccccc1 | inactive: -7.62% | –
CC1CCC(C(=O)O)([C@H](Br)C(=O)O)CC1 (stereo partly drawn) | inactive: 0.86% | –
CCC(C)[C@@H](C(=O)Nc1ccc2c(c1)OCO2)N1Cc2ccccc2C1=O (stereo partly drawn) | – | inconclusive: 20 µM [inhibitor, single point]
CCOc1ccc(CN2C(=O)c3ccccc3Sc3ccc(C(=O)N4CCC5(CC4)OCCO5)cc32)cc1 | – | inconclusive: 6.31 µM [activator, single point]
Cc1cccc(N2CCN(C(=O)c3cc4ccc5cccnc5c4[nH]3)CC2)c1C | – | inconclusive: 31.6 µM [inhibitor, single point]
O=C(Oc1ccc(N(Cc2cccs2)C2=NS(=O)(=O)c3ccccc32)cc1)c1ccccc1 | – | inconclusive: 39.8 µM [inhibitor, single point]
CC(C)NC(=O)N1CCCC2(CCN(C(=O)c3cc(C(F)(F)F)cc(C(F)(F)F)c3)CC2)C1 | – | inconclusive: 31.6 µM [activator, partial curve]
CCc1ccccc1NC(=O)N1CCN(Cc2nc3ccc(C)cc3o2)CC1 | inactive: 8.12% | –
Cc1ccc(NC(=O)C2C3CCCC2C3c2ccccc2)cc1C (stereo not drawn) | inactive: -3.6% | –
CC(=O)N1CCc2cc(Br)cc(S(=O)(=O)CCC(=O)N3CCN(c4cccc(C)c4C)CC3)c21 | – | inconclusive: 39.8 µM [activator, single point]
COc1cc2c(cc1OC)C1C(=O)c3c(cc4c(c3O)C=CC(C)(C)O4)OC1CO2 (stereo not drawn) | – | inconclusive: 39.8 µM [activator, single point]
c1ccc2c(c1)OCC(CNc1ncnc3sccc13)O2 (stereo not drawn) | – | inconclusive: 39.8 µM [inhibitor, single point]

Compound | max response, negative = inhibition | Potency
COc1ccc2nc(NC(=O)Cc3cccs3)sc2c1 | inactive: -13.2% | –
COc1ccc(NC(=O)CN(c2ccc(C)cc2)S(=O)(=O)c2c(C)nn(C)c2C)cc1OC | – | inconclusive: 10 µM [activator, partial curve]
COC(=O)CSc1nc(N)c2c3c(sc2n1)CCCC3 | inactive: 4.9% | –
Cc1ccc(C)c(N2CCN(C3(c4ccccc4)C(=O)c4ccccc4C3=O)CC2)c1 | – | inconclusive: 31.6 µM [inhibitor, single point]
CCOCCCNC(=O)Cn1ncc2c([nH]c3ccc(C)cc32)c1=O | inactive: -5.56% | –
S=c1[nH]nc(-c2ccc3ccccc3n2)n1-c1cc(Cl)cc(Cl)c1 | – | inconclusive: 39.8 µM [inhibitor, single point]
CN(C)C(=O)COC(=O)c1ccccc1OCC(=O)Nc1ccc(SC(F)F)cc1 | – | inconclusive: 39.8 µM [activator, single point]
CCOc1ccc(Cn2nnc(C(=O)NCCc3ccc(Cl)cc3)c2N)cc1 | – | inconclusive: 39.8 µM [inhibitor, single point]
CCOC(=O)C1=C[C@@]2(CC)CCCN3CCc4c(n1c1ccccc41)[C@H]32 | – | inconclusive: 39.8 µM [activator, single point]
COC(=O)c1sc2ccccc2c1-n1cccc1C(=O)C(=O)Nc1ccc(Cl)cc1 | – | inconclusive: 39.8 µM [inhibitor, single point]
CCCN(c1ccccc1F)S(=O)(=O)c1cc(-c2cc(C)no2)ccc1C | inactive: -17.2% | –
CCC(C)[C@H](NC(=O)N1CCN(c2cccc(C(F)(F)F)c2)CC1)C(=O)OC (stereo partly drawn) | – | inconclusive: 31.6 µM [activator, single point]
CC(C)OCCCN1CN(S(=O)(=O)c2ccc(Cl)cc2)c2nc3ccccc3nc21 | – | inconclusive: 39.8 µM [activator, single point]
COc1ccc(/C=C/C(=O)c2ccccc2)cc1COc1ccccc1F | – | inconclusive: 20 µM [inhibitor, single point]
CCC(C(=O)NCCc1ccc(OC)c(OC)c1)n1nc(C)c2sc3ccccc3c2c1=O (stereo not drawn) | – | inconclusive: 31.6 µM [inhibitor, single point]
C=CCn1cnc2c(c1=O)c1nc3ccccc3nc1n2/N=C/c1cc(OC)c(OC)c(OC)c1 | – | inconclusive: 39.8 µM [activator, single point]
C=CCN1C(c2ccc(Br)cc2)=CS/C1=C(/C#N)c1nnc(N2CCOCC2)n1-c1ccccc1 | – | inconclusive: 25.1 µM [activator, single point]
CCCCOCCCn1c(N)c(C(=O)OC(C)COC)c2nc3ccccc3nc21 (stereo not drawn) | – | inconclusive: 12.6 µM [activator, partial curve, poor fit]
CCc1nnc2c(Nc3cc(OC)c(Cl)cc3OC)nc3ccccc3n12 | inactive: 2.29% | –
CCN(CC)S(=O)(=O)c1ccc(N2CCCC2)c(C(=O)OCC(=O)/C(C#N)=C(\C)N)c1 | – | inconclusive: 39.8 µM [activator, single point]
CC(C)Cn1cc(C(=O)N2CCN(c3ccccn3)CC2)c2c3ccccc3n(C)c2c1=O | – | inconclusive: 31.6 µM [activator, single point]
